Here are results for 19 compounds from the supplement of paper PMC10600219.

Structures can show the parent of a compound that is named as a salt. Over roughly 2,800 compounds, “cell viability relative to vehicle” has its median near 0.98; the lowest 2% begin near 0.45. The list shows a part of the results.

For the test, the system named is NCI-H2228 alectinib-DTP. The experiment in a line: cell viability relative to vehicle (fraction of vehicle); NCI-H2228 is an ALK-positive lung cancer line and DTP means drug-tolerant persister; higher = less growth inhibition. The settings on record: 100 nM; treatment time 6 days. In short, it runs like this:
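NCI-H2228 parental cells and drug-tolerant persister cells were plated in 384-well plates; the persisters had been generated with 1000 nM of a targeted drug over 13 days. One day later, the 3114-agent TargetMol anti-cancer compound library was added at 100 nM, with DMSO serving as vehicle. ATP was measured 6 days after that using the CellTiter-Glo 3D Cell Viability Assay. Values are cell viability expressed relative to vehicle-treated cells.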
Compound `CC(C)(C)c1[nH]cnc1/C=c1\[nH]c(=O)/c(=C/c2ccccc2)[nH]c1=O` [Plinabulin] returned a cell viability of 0.597.
Compound `COc1cc2c(Oc3ccc4[nH]c(C)cc4c3F)ccnc2cc1OCC1(N)CC1` [Anlotinib] came in with a cell viability of 0.936.
On to `COc1cc2c(Oc3ccc4[nH]c(C)cc4c3F)ccnc2cc1OCC1(N)CC1` [Anlotinib Dihydrochloride], for which the cell viability came to 0.893.
Regarding `COc1cc(CCC(=O)CC(=O)CCc2ccc(O)c(OC)c2)ccc1O` [Tetrahydro Curcumin], the cell viability turned out to be 0.985.
The result for `CCC(N)(C(=O)O)c1ccc(C(=O)O)cc1` (centres undefined) reads 0.886; that for `CC(=O)c1ccc(S(=O)(=O)NC(=O)NC2CCCCC2)cc1` [Acetohexamide], 0.876.
As for `Cc1c(-c2ccnn2C)cc(C(=O)NCc2ccc(S(C)(=O)=O)cn2)c(=O)n1-c1cccc(C(F)(F)F)c1` [Alvelestat], the cell viability amounted to 1.
The result for `O=C(Nc1ccc(OC(F)(F)F)cc1)c1sccc1NCc1ccnc2ccccc12` reads 1.02.
Compound `CCCCCCCCCCCCCCCCCCOP(=O)([O-])OC1CC[N+](C)(C)CC1` [Perifosine] returned a cell viability of 0.914.
The figure for `CC(=O)Nc1cccc2c1c(Sc1ccc(Cl)cc1)c(C)n2CC(=O)O` is 1.1; for `COc1ccc(CN(CCN(C)C)c2ccccn2)cc1` [Pyrilamine maleate] it is 1.05.
The result for `CC(COc1ccccc1)N(CCCl)Cc1ccccc1` (centres undefined) [Phenoxybenzamine hydrochloride] reads 1.02; that for `Nc1ncn([C@@H]2O[C@H](CO)[C@@H](O)[C@H]2O)c(=O)n1` [5-Azacytidine], 1.05.
Compound `CC(C)C[C@H](NC(=O)[C@@H](COC(C)(C)C)NC(=O)[C@H](Cc1ccc(O)cc1)NC(=O)[C@H](CO)NC(=O)[C@H](Cc1c[nH]c2ccccc12)NC(=O)[C@H](Cc1cnc[nH]1)NC(=O)[C@@H]1CCC(=O)N1)C(=O)N[C@@H](CCCNC(=N)N)C(=O)N1CCC[C@H]1C(=O)NNC(N)=O` [Goserelin acetate] returned a cell viability of 1.04.
Take `COc1cccc(-c2ccc(NC(=O)C3=C(C(=O)O)CCC3)c(F)c2)c1` [Vidofludimus]: the cell viability stood at 1.08.
The compound `Cc1cc(=O)oc2cc(O)ccc12` [4-Methylumbelliferone] gave a cell viability of 0.993.
The figure for `C/C=C1/[C@H](O[C@@H]2O[C@H](CO)[C@@H](O)[C@H](O)[C@H]2O)OC=C(C(=O)OC)[C@H]1CC(=O)OCCc1ccc(O)c(O)c1` [Oleuropein] is 0.897.
`CC(C)(C)Cn1c(N)nc2ccc(-c3[nH]c(C(C)(C)C)nc3-c3ccc(F)cc3)nc21` [Ralimetinib Mesylate] came in with a cell viability of 0.887.
For `COc1ccc(C(=O)CC2(O)C(=O)Nc3c(Cl)ccc(Cl)c32)cc1` (centres undefined), the cell viability was 0.934.
